Out of some 310,000 compounds screened, about 11,000 (3.5%) were called active. Inconclusive means that the source gave no clear call. Such entries were picked first, then a sample of the others. The call rests on the fitted dose curve; in most records, active means well fitted inhibition curve with a large enough effect; inconclusive means small, poorly fitted or top-dose-only effect, or effect the other way; inactive means flat fitted curve, though single readings scatter. No potency is given beside an inconclusive call; the fits are too rough.
experiment: VP16 counterscreen qHTS for inhibitors of ROR gamma transcriptional activity; conditions: Drosophila S2 Gal4-VP16 UAS-luciferase, luminescence, 20 h; series mostly up to 53.6 µM;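 further: Gal4-VP16 expression switched on by copper sulfate through the metallothionein promoter; nearly all actives have a fitted effect of over 50% in size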
Potency means the concentration at half of the fitted maximal effect; tags describe the fitted curve by direction and shape.

Row | SMILES | Potency
1 | COc1ccc(CCn2c(C)cc(C(=O)CCl)c2C)cc1OC | active: 20 µM
2 | CC(C)C(NC(=O)CC12CC3CC(CC(C3)C1)C2)C(=O)O (configuration not stated) | inactive
3 | CN(C)c1ccc(N=C/C=C2/N(C)c3ccccc3C2(C)C)cc1 | inconclusive [activator, single point]
4 | CC(C)Oc1ccc(C(=O)OC(C)C(=O)NC2CCCCC2C)cc1 (configuration not stated) | inconclusive [inhibitor, single point]
5 | O=[N+]([O-])c1ccc(Nc2ccc(F)cc2)nc1 | inconclusive [activator, single point]
6 | C#Cc1cccc(Nc2ncnc3cc(OCCOC)c(OCCOC)cc23)c1 | inactive
7 | COc1ccccc1CNc1nc(-c2ccoc2)nc2ccccc12 | inconclusive [inhibitor, partial curve, poor fit]
8 | CCCCCCCc1n[nH]c(=S)n1Cc1ccccc1 | inconclusive [inhibitor, partial curve]
9 | CC(C)n1cc(CN2CCN(CCc3ccccc3)C(CCO)C2)cn1 (configuration not stated) | inactive
10 | CCN(C(N)=S)c1ccccc1 | inactive
11 | O=C(/C=C/c1cccnc1)c1ccccc1O | inconclusive [inhibitor, single point]
12 | CC(C)Oc1ccc(OCCNC2CCCC2)cc1 | inactive
13 | CSCC[C@H](NC(=O)C(C)(C)Oc1ccc(Cl)cc1)c1nc2ccccc2[nH]1 | inconclusive [activator, single point]
14 | COc1cccc(N=CC2=C(O)CC(C)(C)CC2=O)c1 | inactive
15 | CC(=O)c1cccc(NC(=O)c2ccc(NS(C)(=O)=O)cc2)c1 | inactive
16 | O=S(=O)([N-]c1nc2ccccc2nc1-[n+]1ccccc1)c1ccc(F)cc1 | inactive
17 | Cc1nn(-c2ccccc2)c(N2CCCC2)c1/C=N/NC(=O)c1cc(-c2ccccn2)nc2ccccc12 | inconclusive [inhibitor, single point]
18 | Cc1ccc(NC(=S)N(CCN2CCCCC2)Cc2ccco2)cc1Cl | inconclusive [inhibitor, single point]
19 | CCOC(=O)C1=C(N)Oc2cc(O)ccc2C1c1ccc([N+](=O)[O-])cc1 (configuration not stated) | inconclusive [inhibitor, single point]
20 | CCOC(=O)c1c(C)sc(Sc2ccc(Cl)cc2[N+](=O)[O-])c1OC | inactive
21 | COc1ccc(NC(=O)Nc2cccs2)cn1 | inactive
22 | NC(=O)c1nsc(C(=O)N(c2ccc3c(c2)OCCO3)C(C(=O)NCC2CCCO2)c2ccc(F)cc2)c1N (configuration not stated) | inconclusive [activator, single point]
23 | COc1ccc(N(CC(O)Cn2cnc3ccccc32)S(=O)(=O)c2ccc(C)cc2)cc1 (configuration not stated) | inconclusive [activator, single point]
24 | Clc1ccc(OCCSc2ncccn2)cc1 | inconclusive [inhibitor, single point]

Row | SMILES | Potency
25 | CCOC(=O)c1cc(-c2ccc(/C=C3/C(=O)N(c4ccc(C(=O)O)cc4)N=C3C)o2)ccc1Cl | inactive
26 | O=C(c1ccc(F)cc1)N1CCN(c2cc(N3CCCCC3)c(F)cc2[N+](=O)[O-])CC1 | inconclusive [inhibitor, single point]
27 | COc1ccccc1N1CCN(C(=O)Nc2cccc(Cl)c2)CC1 | inconclusive [inhibitor, single point]
28 | CC(C(=O)NCCCc1ccccc1)c1ccc([N+](=O)[O-])cc1 (configuration not stated) | inconclusive [inhibitor, single point]
29 | COc1ccc(C(=O)N/C(N)=N/c2nc3ccccc3o2)cc1 | inconclusive [inhibitor, single point]
30 | O=C(COc1ccc(S(=O)(=O)N2CCOCC2)cc1)Nc1ccc(Cl)c(C(F)(F)F)c1 | inconclusive [inhibitor, single point]
31 | COc1cc2[nH]c(=S)nc(NCCCOC(C)C)c2cc1OC | inconclusive [inhibitor, single point]
32 | CCCCSc1nc2sc3c(c2c(=O)n1-c1ccccc1)CCN(C)C3 | inactive
33 | O=C(Nc1cccc(C(F)(F)F)c1)N(Cc1ccc(Cl)cc1)CC(O)C(F)(F)F (configuration not stated) | inconclusive [inhibitor, single point]
34 | COc1ccc(C=C(C#N)C#N)c(CSc2ccccn2)c1 | active: 15.8 µM
35 | Cc1ccc(C)c(NC(=S)N(Cc2ccco2)C(C)c2cccs2)c1 (configuration not stated) | active: 5.01 µM
36 | CC(/C=C/c1ccco1)=N/NC(=O)Cc1cccs1 | inconclusive [inhibitor, partial curve]
37 | COc1ccc(N2CCN(c3nc4c(c(=O)[nH]c(=O)n4C)n3Cc3cccc(C)c3)CC2)cc1 | inconclusive [activator, single point]
38 | COC(=O)c1ccc(NS(=O)(=O)c2ccc(OC)cc2)cc1 | inconclusive [activator, partial curve]
39 | CC(C)c1cc(N2CCN(C(=O)c3ccco3)CC2)n2c(nc3ccccc32)c1C#N | inactive
40 | COc1ccc(-n2c(C)cc(C(=O)Cn3nnc4ccccc4c3=O)c2C)cc1 | inconclusive [inhibitor, single point]
41 | CC1CCN(Cc2c(C(=O)N/N=C/c3cc(Cl)ccc3O)nnn2-c2nonc2N)CC1 | active: 4.47 µM
42 | Oc1ccc(/C=N/Nc2cc(N3CCOCC3)nc(N3CCOCC3)n2)cc1O | inconclusive [inhibitor, single point]
43 | O=C(NCCN1CCCC1)C(c1ccccc1)c1ccccc1 | inactive
44 | COc1ccc(OC)c(C2CC(=O)Nc3cc(OC)c(OC)c(OC)c32)c1 (configuration not stated) | inconclusive [inhibitor, single point]
45 | Cc1ccc(NC(=S)N2CCCN(Cc3ccc(F)cc3)C2)c(C)c1 | inconclusive [inhibitor, single point]
46 | O=C(NCc1ccco1)c1cccn2c(=O)c3cc4ccccc4cc3nc12 | active: 11.2 µM
47 | Cc1cc(Cl)cc(Cl)c1OCCOc1cccc2cccnc12 | inconclusive [inhibitor, single point]

From PubChem BioAssay AID2546 (National Center for Advancing Translational Sciences (NCATS), 2010)
